{"source": "PubChem BioAssay AID652104", "about": "(National Center for Advancing Translational Sciences (NCATS), 2013)", "note": "Values joined by “and” are separate entries in the source; they are usually repeats but may differ in a detail not shown here. Equal values may be shown once. In all, about 410,000 compounds went through this assay and about 7,200 (1.8%) were called active. Inconclusive means that the source gave no clear call. Such entries were picked first, then a sample of the others. The call rests on the fitted dose curve; in most records, active means well fitted activation curve with a large enough effect; inconclusive means small, poorly fitted or top-dose-only effect, or another doubt; inactive means no such curve, though single readings can be large or run the other way. No potency is given beside an inconclusive call; the fits are too rough. More than one record can exist for a structure, and the calls need not agree. Potency means the concentration at half of the fitted maximal effect; tags describe the fitted curve by direction and shape."}
{"test": "qHTS of TDP-43 Inhibitors; further: nearly all actives have a fitted effect of over 50% in size; on growth rescue (activation): % of control where 0% means no effect", "settings": "TDP-43 expressing yeast growth rescue, BacTiter-Glo, 24 h; growth rescue (activation): at 46.1 µM (top of the series) unless noted", "summary_of_the_method": "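Yeast cells expressing TDP-43 under galactose induction are exposed to compounds for 24 hr at 30 deg C. BacTiter-Glo luminescence measures growth, so protective compounds score as activators.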"}
{"smiles": "CCOC(=O)C=C(C(=O)OCC)C(=O)OCC", "Potency": "inconclusive [activator, single point]"}
{"smiles": "COc1ccc(CCCC(=O)NCCc2ccccc2)c(C)c1", "Potency": "inconclusive [activator, full curve, poor fit]"}
{"smiles": "CCOC(=O)C(=O)Nc1nccs1", "Potency": "inactive"}
{"smiles": "Cc1ccc(C2C=C(c3ccccc3OC(F)F)Nc3ncnn32)cc1", "note": "(stereo not given)", "Potency": "active: 12.6 µM"}
{"smiles": "COc1ccc(Nc2oc(COc3ccc(C)cc3)nc2C#N)cc1", "Potency": "active: 22.4 µM"}
{"smiles": "CCCNC(=O)C1(C)CCCN(Cc2ccc(C)cc2)C1", "note": "(stereo not given)", "Potency": "inconclusive [activator, full curve, poor fit]"}
{"smiles": "O=c1ccc(-c2ccccc2)nn1Cc1ccc(F)cc1Cl", "Potency": "inactive and active: 31.6 µM"}
{"smiles": "Cc1cccc(C(=O)N2c3nc(-c4ccco4)nn3C3(CCCCC3)[C@@H]3CCCC[C@@H]32)c1", "Potency": "inactive"}
{"smiles": "CN(C(=O)c1cccc(NC(=O)Cc2cccc(NC(=O)C3CCN(S(=O)(=O)c4cccc([N+](=O)[O-])c4)CC3)c2)c1)C1CC1", "Potency": "inconclusive [activator, single point]"}
{"smiles": "Cc1ccsc1C(=O)N1CCC1(C)C(=O)NCC(C)(C)C", "note": "(stereo not given)", "Potency": "inconclusive [activator, single point]"}
{"smiles": "CCN=c1sc(C(=O)NCCc2ccccc2)cc(=O)n1CC", "Potency": "inconclusive [activator, single point]"}
{"smiles": "C#CCOc1ccc(C2CC(=O)Nc3c2c(C)nn3-c2nc(C)cc(C)n2)cc1", "note": "(stereo not given)", "Potency": "inconclusive [activator, partial curve]"}
{"smiles": "Cc1cccc(-n2ncc3c(N4CCCC(C)C4)ncnc32)c1", "note": "(stereo not given)", "Potency": "inconclusive [activator, partial curve]"}
{"smiles": "Cc1ccc(Cn2ccnc2SCC(=O)Nc2nc3ccccc3s2)cc1", "Potency": "active: 22.4 µM"}
{"smiles": "C[C@H]1CCCCO[C@@H](CN(C)C(=O)NC2CCCCC2)[C@@H](C)CN([C@@H](C)CO)C(=O)c2cc(NC(=O)Cc3ccccc3)ccc2O1", "Potency": "inconclusive [activator, full curve, poor fit]"}
{"smiles": "COc1cccc(C(C)(O)c2nc(-c3ccccc3OC)cs2)c1", "note": "(stereo not given)", "Potency": "inconclusive [activator, single point]"}
{"smiles": "NS(=O)(=O)c1ccc(NC(=O)C(=O)Nc2ccc3nc4n(c(=O)c3c2)CCCCC4)cc1", "Potency": "inactive"}
{"smiles": "CSc1nn(Cc2cccc(C)c2)c(N)c1S(=O)(=O)c1ccccc1", "Potency": "inconclusive [activator, partial curve]"}
{"smiles": "CCOC(=O)C(NC(=O)c1cccc(Cl)c1)(OCc1ccc(F)cc1)C(F)(F)F", "note": "(stereo not given)", "Potency": "inconclusive [activator, single point]"}
{"smiles": "O=C(O)C1CCN(S(=O)(=O)c2ccc3[nH]ccc3c2)CC1", "Potency": "inconclusive [activator, partial curve]"}
{"smiles": "CCCCCCSc1nnc2c(n1)OC(C)Nc1ccc(Br)cc1-2", "note": "(stereo not given)", "Potency": "inconclusive [activator, partial curve, poor fit]"}
{"smiles": "COc1cc(C(=O)ONC(=O)c2ccc(OC(F)F)cc2)cc(OC)c1OC", "Potency": "active: 8.91 µM"}
{"smiles": "Cc1c(Cl)cccc1NC(=S)NCCc1ccc(F)cc1", "Potency": "inconclusive [activator, single point]"}
{"smiles": "C/C(CC(=O)Nc1ccc(Cl)cc1)=N\\NC(=O)C(=O)NCCO", "Potency": "inconclusive [activator, single point]"}
{"smiles": "COc1ccc(C(=O)n2nc(-c3ccco3)nc2SC)cc1OC", "Potency": "inconclusive [activator, single point]"}
{"smiles": "Cc1ccccc1N1CCN(S(=O)(=O)c2cccs2)CC1", "Potency": "inconclusive [activator, partial curve]"}
{"smiles": "Cc1c(C(=O)Nc2cccc(-c3nc4ccccc4s3)c2)oc2ccccc12", "Potency": "inactive"}
{"smiles": "Cc1ccc(C)c(-c2csc(NC(=O)c3cnccn3)n2)c1", "Potency": "inconclusive [activator, single point]"}
{"smiles": "COc1ccc(C)cc1NC(=O)CSc1nc(SC)ns1", "Potency": "inconclusive [activator, partial curve]"}
{"smiles": "Cc1cc(C)n(C(=O)CCC2COc3ccccc3O2)n1", "note": "(stereo not given)", "Potency": "inactive"}
{"smiles": "CCOc1ccccc1COC(=O)c1cccc(-n2cnnn2)c1", "Potency": "active: 17.8 µM"}
{"smiles": "CC(=O)COc1ccc2c(-c3ccccc3)cc(=O)oc2c1C", "Potency": "inconclusive [activator, single point]"}
{"smiles": "Cc1ccc(C(=O)C(C)OC(=O)Cn2c(C)csc2=O)cc1", "note": "(stereo not given)", "Potency": "inactive"}
{"smiles": "COCCn1cc(C(=O)NCCCOC(C)C)c2c3ccccc3n(C)c2c1=O", "Potency": "inactive"}
{"smiles": "CCOC(=O)c1noc2nc(C)n(Cc3cccc([N+](=O)[O-])c3)c(=O)c12", "Potency": "inconclusive [activator, partial curve]"}
{"smiles": "Nc1cc([N+](=O)[O-])cc2oc(-c3ccccc3)cc12", "Potency": "active: 35.5 µM"}
{"smiles": "Cc1nc(SCC(=O)Nc2ccc(F)cc2)c2oc3ccccc3c2n1", "Potency": "inactive"}
{"smiles": "O=[N+]([O-])c1ncc(Br)cc1Nc1ccccc1", "Potency": "inconclusive [activator, single point]"}
{"smiles": "Cc1cc(Cl)n2c(nc3cc(F)c(F)cc32)c1C#N", "growth rescue (activation)": "inconclusive: -78.6% [activator]"}
{"smiles": "CCOc1ccccc1N1CCN(C(=O)c2cc(-c3cc(OC)ccc3OC)nc3ccccc23)CC1", "Potency": "inconclusive [activator, single point]"}
{"smiles": "COc1ccc(Nc2nc3ccccc3c(=O)[nH]2)cc1", "Potency": "inconclusive [activator, single point]"}
{"smiles": "COc1ccc(Nc2nc3cc(-c4sccc4C)sc3c(=O)n2C)cc1OC", "Potency": "active: 35.5 µM"}
{"smiles": "O=C(Cc1ccc2c(c1)OCCO2)N1CCN(S(=O)(=O)c2ccccc2C(F)(F)F)CC1", "Potency": "inconclusive [activator, partial curve]"}
{"smiles": "O=C(O)c1ccc(/C=N/Nc2cccc(C(F)(F)F)c2)cc1", "growth rescue (activation)": "inconclusive: -85.7% [activator]"}
{"smiles": "COc1ccc(/C(N)=N/OC(=O)c2ccc3ccccc3c2)cc1OC", "Potency": "inconclusive [activator, full curve, poor fit]"}
